Assay results from article PMC4336329 (PLoS ONE, 2015).
Hit rate of the full screen: of about 310,000 compounds, about 14,000 (4.5%) showed an effect of 50% or more. Effects have a minus sign here. The list shows a part of the results.

Biological target: human ether-à-go-go-related gene (hERG) potassium channel (human, UniProt Q12809)
Test: primary screen, population patch clamp on CHO cells stably expressing hERG
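Also: peak tail current of the secondary pulse compared with the same well before compound.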

Sequence of human ether-à-go-go-related gene (hERG) potassium channel (Q12809 whole entry, looked up): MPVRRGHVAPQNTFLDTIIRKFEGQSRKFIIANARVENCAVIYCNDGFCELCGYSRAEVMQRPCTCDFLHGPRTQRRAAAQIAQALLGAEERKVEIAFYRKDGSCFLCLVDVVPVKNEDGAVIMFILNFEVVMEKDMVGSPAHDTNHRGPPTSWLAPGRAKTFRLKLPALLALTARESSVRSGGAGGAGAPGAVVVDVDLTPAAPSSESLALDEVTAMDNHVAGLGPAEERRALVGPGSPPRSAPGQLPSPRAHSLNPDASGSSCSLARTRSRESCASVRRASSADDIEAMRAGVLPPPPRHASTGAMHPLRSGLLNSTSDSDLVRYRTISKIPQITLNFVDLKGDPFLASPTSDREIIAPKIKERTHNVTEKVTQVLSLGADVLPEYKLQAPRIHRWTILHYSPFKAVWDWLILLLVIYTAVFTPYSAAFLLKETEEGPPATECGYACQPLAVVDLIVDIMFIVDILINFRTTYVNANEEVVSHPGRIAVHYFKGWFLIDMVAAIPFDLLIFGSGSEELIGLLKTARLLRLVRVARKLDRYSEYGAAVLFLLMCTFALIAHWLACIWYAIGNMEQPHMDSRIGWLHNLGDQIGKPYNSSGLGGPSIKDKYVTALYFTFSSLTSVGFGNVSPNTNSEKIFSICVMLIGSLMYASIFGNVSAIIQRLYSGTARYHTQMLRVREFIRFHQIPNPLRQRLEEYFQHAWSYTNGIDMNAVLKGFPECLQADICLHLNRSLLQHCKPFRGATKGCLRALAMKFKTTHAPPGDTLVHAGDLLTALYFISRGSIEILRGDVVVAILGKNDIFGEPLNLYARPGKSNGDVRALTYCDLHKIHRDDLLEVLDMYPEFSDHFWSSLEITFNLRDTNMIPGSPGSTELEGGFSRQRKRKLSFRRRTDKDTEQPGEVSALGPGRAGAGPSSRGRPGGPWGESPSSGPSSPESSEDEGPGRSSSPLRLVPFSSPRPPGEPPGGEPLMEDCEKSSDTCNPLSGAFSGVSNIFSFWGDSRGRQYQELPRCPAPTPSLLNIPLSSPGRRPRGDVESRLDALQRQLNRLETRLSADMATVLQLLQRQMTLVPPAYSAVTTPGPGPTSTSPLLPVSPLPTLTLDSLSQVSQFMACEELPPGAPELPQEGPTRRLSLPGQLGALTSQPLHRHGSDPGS

Which “hERG current change (%, negative = inhibition) at 10uM” value does the source give for `Cc1ccc2nc(-c3ccccc3)cc(C(=O)Nc3cccnc3)c2c1` here?
The value was 2.22%.

Which “hERG current change (%, negative = inhibition) at 10uM” value does the source give for `COc1cc(C(=O)N(C)C2CCCCC2)ccc1OC1CCN(C(C)=O)CC1` here?
The value was 9.42%.

For `Cc1cc(C)c(S(=O)(=O)N2CCN(S(=O)(=O)N3CCC(C)CC3)CC2)c(C)c1`, which “hERG current change (%, negative = inhibition) at 10uM” value is on record?
The value was 20.8%.

For `COc1cc(/C=N/NC(=O)COc2ccc(-n3cnnn3)cc2)ccc1OCC(N)=O`, which “hERG current change (%, negative = inhibition) at 10uM” value is on record?
The value was 17.3%.

Which “hERG current change (%, negative = inhibition) at 10uM” value does the source give for `Cc1ccc(C(=O)COc2cc(O)c3c(=O)cc(-c4ccccc4)oc3c2)cc1` here?
Its value is 24.6%.

`CCN(CC)CC(=O)N1N=C(c2cccs2)CC1c1ccco1` (stereo not shown) was tested. Which “hERG current change (%, negative = inhibition) at 10uM” value did it give?
The value was -39%.

With `Cc1nc2ccccc2n1/N=C/c1ccc([N+](=O)[O-])s1` as the compound, how does the “hERG current change (%, negative = inhibition) at 10uM” value read?
Its value is -12.3%.

How did the “hERG current change (%, negative = inhibition) at 10uM” value turn out when `CCOc1cc(/C=N/NC(=O)CCc2n[nH]c(=O)[nH]c2=O)ccc1O` was run?
Its value is 8.56%.

How did the “hERG current change (%, negative = inhibition) at 10uM” value turn out when `COc1ccc(C2CC(=O)C(C=NCC(C)C)=C(O)C2)cc1` (stereo not shown) was run?
Its value is 6.87%.

How did the “hERG current change (%, negative = inhibition) at 10uM” value turn out when `CC(C)NC(=O)c1c2c(nc3ccccc13)CCCC2` was run?
Its value is -2.93%.

With `COc1ccccc1NC(=S)N1CCCC1` as the compound, how does the “hERG current change (%, negative = inhibition) at 10uM” value read?
The value was 2.06%.

`Nc1nc2ccc(S(=O)(=O)c3ccc4nc(N)sc4c3)cc2s1` was tested. Which “hERG current change (%, negative = inhibition) at 10uM” value did it give?
The value was -8.96%.

`COc1ccc(OCC(=O)Nc2ccc(S(=O)(=O)Nc3nc(C)cc(C)n3)cc2)cc1` was tested. Which “hERG current change (%, negative = inhibition) at 10uM” value did it give?
Its value is -0.43%.

How did the “hERG current change (%, negative = inhibition) at 10uM” value turn out when `O=C(NNC(=O)c1cccs1)c1ccc2ccccc2c1` was run?
The value was 3.81%.

`CCCCCCOc1ccc(C(=O)NCCCn2ccnc2)cc1` was tested. Which “hERG current change (%, negative = inhibition) at 10uM” value did it give?
Its value is -41.7%.

`O=C(CN(C(=O)CCC(=O)Nc1nccs1)c1cccc(F)c1)NCc1ccccc1` was tested. Which “hERG current change (%, negative = inhibition) at 10uM” value did it give?
Its value is 14.7%.

For `CCCC(=O)C1=C(O)C(C(=O)OC)C(C)(C)CC1=Nc1ccncc1` (stereo not shown), which “hERG current change (%, negative = inhibition) at 10uM” value is on record?
Its value is -12.6%.

How did the “hERG current change (%, negative = inhibition) at 10uM” value turn out when `C=CC[n+]1cccc(-c2cc3ccc(C)cc3[nH]2)c1.[Br-]` was run?
Its value is -16.2%.

How did the “hERG current change (%, negative = inhibition) at 10uM” value turn out when `CC(=O)Nc1ccc(/C=C/c2ccc3c([N+](=O)[O-])cccc3n2)cc1` was run?
Its value is 6.68%.

With `O=C(CC1C(=O)N(Cc2ccccc2)C(=S)N1CCN1CCOCC1)Nc1ccc(F)cc1` (stereo not shown) as the compound, how does the “hERG current change (%, negative = inhibition) at 10uM” value read?
Its value is -5.1%.

With `O=C(NCc1ccccc1)C1CCCN1S(=O)(=O)c1cccc2cccnc12` (stereo not shown) as the compound, how does the “hERG current change (%, negative = inhibition) at 10uM” value read?
The value was -11%.

Which “hERG current change (%, negative = inhibition) at 10uM” value does the source give for `COc1ccc(-c2nc3oc4cc(OC)ccc4c(=O)c3c(=O)n2Cc2ccco2)cc1` here?
Its value is -27.5%.

Which “hERG current change (%, negative = inhibition) at 10uM” value does the source give for `COc1ccc(NC(=O)Nc2ccc(C(=O)N3CCOCC3)cc2)c(OC)c1` here?
The value was 2.56%.

For `O=C(c1cc(-c2cccs2)nc2ccccc12)N1CCN(c2ccccc2O)CC1`, which “hERG current change (%, negative = inhibition) at 10uM” value is on record?
The value was 25.8%.

With `CCn1c(NN)nc2sc3c(c2c1=O)CCC3` as the compound, how does the “hERG current change (%, negative = inhibition) at 10uM” value read?
The value was 17.5%.

With `CCOC(=O)CSc1nc(COc2ccccc2)nc2ccccc12` as the compound, how does the “hERG current change (%, negative = inhibition) at 10uM” value read?
Its value is 2.22%.

With `Cc1noc(C)c1S(=O)(=O)N1CCCC1C(=O)NC(C)(C)C` (stereo not shown) as the compound, how does the “hERG current change (%, negative = inhibition) at 10uM” value read?
Its value is 15.3%.

`CC1=C(C(=O)NC2CCCC(C)C2C)C2(CCCCC2)OC1=O` (stereo not shown) was tested. Which “hERG current change (%, negative = inhibition) at 10uM” value did it give?
The value was -1.75%.

How did the “hERG current change (%, negative = inhibition) at 10uM” value turn out when `COc1ccccc1-c1sc2ccccc2c1-c1ccccc1OC` was run?
The value was 14.4%.

`CCCCCC(=O)N/N=C(\C)c1ccc(N2CCCCC2)cc1` was tested. Which “hERG current change (%, negative = inhibition) at 10uM” value did it give?
The value was 7.01%.

Which “hERG current change (%, negative = inhibition) at 10uM” value does the source give for `Cc1cccc(C(=O)n2c(=S)nc3ccccn32)c1` here?
The value was 4.13%.

For `O=c1oc2ccc(Cl)cc2cc1-c1ccccc1`, which “hERG current change (%, negative = inhibition) at 10uM” value is on record?
The value was 22.4%.

With `O=C(COC(=O)c1ccccc1NS(=O)(=O)c1ccc(Cl)cc1)NCc1ccccc1` as the compound, how does the “hERG current change (%, negative = inhibition) at 10uM” value read?
Its value is 6.15%.

`CCOC(=O)N1CCC(NC(=O)C2CCN(S(=O)(=O)c3ccc4c(c3)oc(=O)n4C)CC2)CC1` was tested. Which “hERG current change (%, negative = inhibition) at 10uM” value did it give?
Its value is 9.17%.

`COc1ccc(CCNC(=O)C(=O)NCc2ccc(C)cc2)cc1OC` was tested. Which “hERG current change (%, negative = inhibition) at 10uM” value did it give?
Its value is -1.57%.

`Nc1nnn(CC(=O)N/N=C/C=C/c2ccccc2)n1` was tested. Which “hERG current change (%, negative = inhibition) at 10uM” value did it give?
The value was 10%.

`NS(=O)(=O)OCCCc1ccccc1` was tested. Which “hERG current change (%, negative = inhibition) at 10uM” value did it give?
Its value is 8.49%.

For `CC(C)C(=O)N1CCC2(CC1)Oc1ccc(F)cc1C(=O)C21CC(c2ccc(Cl)cc2)=NO1` (stereo not shown), which “hERG current change (%, negative = inhibition) at 10uM” value is on record?
The value was -31.2%.

Which “hERG current change (%, negative = inhibition) at 10uM” value does the source give for `CN(C)c1ccc(Nc2ccc([N+](=O)[O-])cn2)cc1` here?
Its value is 21.5%.

With `Cc1ccc(C(=O)c2c3ccccc3[n+]([O-])n2CCC(N)=O)cc1` as the compound, how does the “hERG current change (%, negative = inhibition) at 10uM” value read?
The value was -5.98%.

How did the “hERG current change (%, negative = inhibition) at 10uM” value turn out when `O=C(NCCc1ccco1)c1nn(Cc2ccccc2)c(=O)c2ccccc12` was run?
Its value is 10.3%.

How did the “hERG current change (%, negative = inhibition) at 10uM” value turn out when `O=C(Nc1ccccc1)Nc1ccno1` was run?
The value was 25.4%.

Which “hERG current change (%, negative = inhibition) at 10uM” value does the source give for `CCCN(CCC)CCCNC(=O)c1cn(C)c2ccc(S(=O)(=O)N(C)C3CCCCC3)cc2c1=O` here?
The value was -73.7%.

For `O=C(Nc1ccc(C(=O)N2CCOCC2)cc1)Nc1cccc(Cl)c1`, which “hERG current change (%, negative = inhibition) at 10uM” value is on record?
The value was -10.1%.

With `C1CCc2nnc(C3CC3)n2CC1` as the compound, how does the “hERG current change (%, negative = inhibition) at 10uM” value read?
Its value is 21%.

How did the “hERG current change (%, negative = inhibition) at 10uM” value turn out when `COc1ccc(CCNC(=O)CNCC(c2ccccc2)N(C)C)cc1OC.O=C(O)C(=O)O` (stereo not shown) was run?
The value was 19.9%.

For `Cc1ccc(OCC(O)CNC(=O)c2ccccc2C(=O)O)cc1` (stereo not shown), which “hERG current change (%, negative = inhibition) at 10uM” value is on record?
Its value is 2.66%.

How did the “hERG current change (%, negative = inhibition) at 10uM” value turn out when `CCc1cccc(C)c1NC(=O)c1ccc(CN2CCc3ccccc3C2)cc1` was run?
The value was -0.345%.

With `O=C(CNC(=O)Cc1ccccc1)NCC(=O)OCC(=O)c1ccc(Cl)cc1` as the compound, how does the “hERG current change (%, negative = inhibition) at 10uM” value read?
The value was 12.7%.

`CCCCNC(=O)NS(=O)(=O)c1ccc(NC(=O)CCC(=O)c2cccs2)cc1` was tested. Which “hERG current change (%, negative = inhibition) at 10uM” value did it give?
The value was 23.1%.

For `CC1CN(C(=O)CCC(=O)NCCc2ccccc2)c2ccccc2O1` (stereo not shown), which “hERG current change (%, negative = inhibition) at 10uM” value is on record?
The value was -9.06%.

Which “hERG current change (%, negative = inhibition) at 10uM” value does the source give for `O=C(O)c1ccc(-n2nnc3ccccc32)c([N+](=O)[O-])c1` here?
The value was 13.7%.

With `CCOC(=O)c1cc2sccc2n1CC(=O)OC` as the compound, how does the “hERG current change (%, negative = inhibition) at 10uM” value read?
The value was 4.34%.

Which “hERG current change (%, negative = inhibition) at 10uM” value does the source give for `CC(=O)c1cccc(NC(=O)CCNC(=O)c2ccccc2Cl)c1` here?
The value was 11.4%.

Which “hERG current change (%, negative = inhibition) at 10uM” value does the source give for `Cn1c(C(=O)NCC2CCCO2)cc2oc3ccccc3c21` (stereo not shown) here?
The value was -5.26%.

`Cc1cc(C)c(OCCn2ccnc2)c(C)c1` was tested. Which “hERG current change (%, negative = inhibition) at 10uM” value did it give?
Its value is 15.4%.

How did the “hERG current change (%, negative = inhibition) at 10uM” value turn out when `N/C(=N\OC(=O)c1cccc(F)c1)c1ccccc1` was run?
The value was 11.1%.

How did the “hERG current change (%, negative = inhibition) at 10uM” value turn out when `Cc1cc(Nc2ccc3c(c2)OCCO3)n2nc(C)nc2n1` was run?
The value was -9.32%.
